{"source": "the supplement of paper PMC9446081", "note": "Among all 39,000 compounds or so, about 220 (0.56%) showed activity. The list shows a part of the results.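 Also: static incubation at 37 °C against the wild-type strain, values averaged over two biological replicates.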"}
{"test_system": "Escherichia coli K-12 BW25113", "test": "relative growth (OD600 normalised to plate interquartile mean) (fraction); higher = less growth inhibition, active = 0.2 or less", "conditions": "50 µM; LB; incubation time: overnight (16-24 h)"}
{"compound": "COc1ccc2c3c([nH]c2c1)[C@H](CO)N(C[C@]13CCN(CC1)CC1CCCCC1)C(=O)Nc1cccc(c1)F", "relative growth": "inactive: 1.02"}
{"compound": "C[C@@H]1CN([C@@H](C)CO)C(=O)c2cccc(NS(=O)(=O)c3ccc(F)cc3)c2O[C@@H]1CN(C)C(=O)Nc1ccc(C(F)(F)F)cc1", "relative growth": "inactive: 0.992"}
{"compound": "CCCC(=O)Nc1ccc2c(c1)C(=O)N(C)C[C@H](OC)[C@@H](C)CN(S(=O)(=O)c1cn(C)cn1)[C@H](C)CO2", "relative growth": "inactive: 0.975"}
{"compound": "COc1ccc(S(=O)(=O)N(C)C[C@@H]2Oc3c(NC(=O)Nc4cccc5ccccc45)cccc3C(=O)N([C@@H](C)CO)C[C@@H]2C)cc1", "relative growth": "inactive: 1.04"}
{"compound": "C[C@H](NC(=O)C[C@H]1C[C@@H]2c3cc(NC(=O)Nc4ccc(C(F)(F)F)cc4)ccc3O[C@@H]2[C@H](CO)O1)c1ccccc1", "relative growth": "inactive: 0.959"}
{"compound": "CC(C)NC(=O)N(C)C[C@H]1Oc2c(NS(=O)(=O)c3ccccc3)cccc2C(=O)N([C@@H](C)CO)C[C@H]1C", "relative growth": "inactive: 1.04"}
{"compound": "C[C@H]1CN([C@@H](C)CO)C(=O)Cc2cc(NC(=O)Nc3ccc(F)cc3)ccc2O[C@H]1CN(C)S(=O)(=O)c1ccc(Oc2ccccc2)cc1", "relative growth": "inactive: 1.04"}
{"compound": "Cc1ccc(S(=O)(=O)Nc2ccc3c(c2)C(=O)N([C@@H](C)CO)C[C@H](C)[C@@H](CN(C)C(=O)Nc2ccc(F)cc2)OCCCC[C@H](C)O3)cc1", "relative growth": "inactive: 1.04"}
{"compound": "COc1ccc(S(=O)(=O)Nc2ccc3c(c2)C(=O)N([C@@H](C)CO)C[C@@H](C)[C@@H](CN(C)S(=O)(=O)c2cn(C)cn2)O3)cc1", "relative growth": "inactive: 0.994"}
{"compound": "Cc1noc(C)c1S(=O)(=O)Nc1cccc2c1O[C@@H](CN(C)Cc1ccc(C(=O)O)cc1)[C@@H](C)CN([C@H](C)CO)C2=O", "relative growth": "inactive: 0.988"}
{"compound": "Cn1cnc(S(=O)(=O)N[C@@H]2C=C[C@@H](CC(=O)N3CCN(c4ccccc4)CC3)O[C@@H]2CO)c1", "relative growth": "inactive: 0.998"}
{"compound": "Cc1noc(C)c1S(=O)(=O)N(C)C[C@H]1Oc2ccc(NC(=O)Nc3ccc4c(c3)OCO4)cc2C(=O)N([C@@H](C)CO)C[C@H]1C", "relative growth": "inactive: 1.01"}
{"compound": "C[C@H](CO)N1C[C@H](C)[C@H](CN(C)Cc2ccc(C(=O)O)cc2)OCCCC[C@H](C)Oc2ccc(NS(=O)(=O)c3ccc(Cl)cc3)cc2C1=O", "relative growth": "inactive: 1.02"}
{"compound": "C[C@H]1CN([C@@H](C)CO)C(=O)Cc2cc(NC(=O)C3CCCCC3)ccc2O[C@H]1CN(C)S(C)(=O)=O", "relative growth": "inactive: 1.03"}
{"compound": "C[C@@H]1CN([C@H](C)CO)C(=O)Cc2cc(NC(=O)Cn3cnnn3)ccc2O[C@H]1CN(C)S(=O)(=O)c1ccc(Cl)cc1", "relative growth": "inactive: 0.998"}
{"compound": "COCCOC(=O)N1C(=O)[C@@]2(c3cc(C#CC4=CCCCC4)ccc31)[C@H](C(=O)N1CCN(c3ncccn3)CC1)[C@H]1C(=O)O[C@H](c3ccccc3)[C@H](c3ccccc3)N1[C@@H]2c1ccc(OCCO)cc1", "relative growth": "inactive: 1.08"}
{"compound": "C/C(Cc1ncn(-c2cc(C)on2)n1)=N\\O", "relative growth": "inactive: 1.02"}
{"compound": "O=C(C[C@@H]1CC[C@@H](NS(=O)(=O)c2ccc(F)cc2)[C@@H](CO)O1)NCc1ccc(Cl)c(Cl)c1", "relative growth": "inactive: 0.958"}
{"compound": "COc1ccccc1S(=O)(=O)N[C@@H]1CC[C@@H](CCNC(=O)C2CC2)O[C@H]1CO", "relative growth": "inactive: 1.02"}
{"compound": "O=C(N/N=C/[C@H](O)[C@@H](O)[C@H](O)[C@H](O)CO[C@H]1O[C@H](CO)[C@H](O)[C@H](O)[C@H]1O)c1ccccn1", "relative growth": "inactive: 1.01"}
{"compound": "C[C@@H]1CCCCO[C@@H](CN(C)C(=O)NC2CCCCC2)[C@H](C)CN([C@@H](C)CO)C(=O)c2cc(NC(=O)c3ccccc3)ccc2O1", "relative growth": "inactive: 1.01"}
{"compound": "COCCOC(=O)N1C(=O)[C@@]2(c3cc(C#Cc4ccc(OC)cc4)ccc31)[C@H](C(=O)N1CCN(c3ncccn3)CC1)[C@H]1C(=O)O[C@H](c3ccccc3)[C@H](c3ccccc3)N1[C@@H]2c1ccc(OCCO)cc1", "relative growth": "inactive: 1.08"}
{"compound": "COc1ccc(CN(C)C[C@@H]2OCCCC[C@@H](C)Oc3ccc(NC(=O)c4ccncc4)cc3C(=O)N([C@@H](C)CO)C[C@H]2C)cc1", "relative growth": "inactive: 0.917"}
{"compound": "C[C@H](CO)N1C[C@H](C)[C@H](CN(C)Cc2ccncc2)Oc2c(NS(=O)(=O)c3ccc(F)cc3)cccc2C1=O", "relative growth": "inactive: 1.03"}
{"compound": "COc1ccc(CN(C)C[C@H]2OCCCC[C@H](C)Oc3ccc(NC(=O)C4CCCCC4)cc3C(=O)N([C@@H](C)CO)C[C@@H]2C)cc1", "relative growth": "inactive: 0.972"}
{"compound": "COc1ccc(NC(=O)Nc2ccc3c(c2)C(=O)N([C@@H](C)CO)C[C@@H](C)[C@@H](CN(C)S(=O)(=O)c2cn(C)cn2)O3)cc1", "relative growth": "inactive: 1.02"}
{"compound": "COc1ccc(CNC(=O)C[C@@H]2CC[C@H]3[C@@H](COC[C@H](O)CN3S(=O)(=O)c3ccc(C)cc3)O2)cc1OC", "relative growth": "inactive: 0.972"}
{"compound": "CC(C)(C)NCc1ccccc1F", "relative growth": "inactive: 1.03"}
{"compound": "C[C@@H]1CN([C@@H](C)CO)C(=O)c2cccc(NC(=O)C3CCOCC3)c2O[C@H]1CN(C)C(=O)NC1CCCCC1", "relative growth": "inactive: 0.928"}
{"compound": "Cc1noc(C)c1S(=O)(=O)Nc1ccc2c(c1)CC(=O)N([C@@H](C)CO)C[C@@H](C)[C@H](CN(C)C(=O)NC1CCCCC1)O2", "relative growth": "inactive: 0.962"}
{"compound": "C[C@H](CO)N1C[C@H](C)[C@H](CN(C)Cc2ccncc2)Oc2ccc(NS(=O)(=O)c3cn(C)cn3)cc2CC1=O", "relative growth": "inactive: 0.998"}
{"compound": "COC(=O)c1ccc(O)cc1", "relative growth": "inactive: 1.01"}
{"compound": "C[C@@H]1CN([C@@H](C)CO)S(=O)(=O)c2ccc(C#CC(C)(C)O)cc2O[C@@H]1CN(C)Cc1ccncc1", "relative growth": "inactive: 0.986"}
{"compound": "CC(C)NC(=O)N(C)C[C@@H]1Oc2ccc(NC(=O)CCC(F)(F)F)cc2CC(=O)N([C@@H](C)CO)C[C@@H]1C", "relative growth": "inactive: 0.984"}
{"compound": "C[C@@H](O)CC(C)(C)O", "relative growth": "inactive: 0.997"}
{"compound": "C/C=C(/C)C(=O)O[C@@H]1[C@H](OC(C)=O)[C@]2(CO)[C@H](O)C[C@]3(C)C(=CC[C@H]4[C@@]5(C)CC[C@H](O[C@@H]6O[C@H](C(=O)O)[C@@H](O[C@@H]7O[C@H](CO)[C@@H](O)[C@H](O)[C@H]7O)[C@H](O)[C@H]6O[C@@H]6O[C@H](CO)[C@@H](O)[C@H](O)[C@H]6O)[C@](C)(CO)[C@@H]5CC[C@]43C)[C@@H]2CC1(C)C", "relative growth": "inactive: 0.992"}
{"compound": "Cc1ccc(S(=O)(=O)c2c[nH]c(=O)[nH]2)cc1", "relative growth": "inactive: 1"}
{"compound": "C[C@@H]1CN([C@@H](C)CO)C(=O)c2cc(NC(=O)CCCN(C)C)ccc2O[C@H]1CN(C)Cc1ccc(Oc2ccccc2)cc1", "relative growth": "inactive: 0.995"}
{"compound": "Cc1cc(C(=O)Nc2cccc3c2O[C@H](CN(C)S(=O)(=O)c2ccc(F)cc2)[C@@H](C)CN([C@@H](C)CO)C3=O)n(C)n1", "relative growth": "inactive: 1.02"}
{"compound": "COc1ccc(S(=O)(=O)Nc2ccc3c(c2)CC(=O)N([C@@H](C)CO)C[C@@H](C)[C@@H](CN(C)C(=O)NC(C)C)O3)cc1", "relative growth": "inactive: 0.997"}
{"compound": "O=C(C[C@H]1C=C[C@H](NC(=O)CN2CCOCC2)[C@@H](CO)O1)NCCc1ccncc1", "relative growth": "inactive: 1.01"}
{"compound": "COc1ccc(CN(C)C[C@@H]2OCCCC[C@@H](C)Oc3ccc(NC(=O)Nc4ccc(OC)cc4)cc3C(=O)N([C@@H](C)CO)C[C@@H]2C)cc1", "relative growth": "inactive: 0.93"}
{"compound": "O=C(C=Cc1ccccc1)c1ccc(O)cc1", "relative growth": "inactive: 0.823"}
{"compound": "Cc1ccc(S(=O)(=O)N(C)C[C@H]2Oc3ccc(NC(=O)C4CC4)cc3CC(=O)N([C@H](C)CO)C[C@H]2C)cc1", "relative growth": "inactive: 0.991"}
{"compound": "C[C@@H]1CCCCO[C@H](CN(C)Cc2ccc(C(F)(F)F)cc2)[C@@H](C)CN([C@@H](C)CO)C(=O)c2cc(NC(=O)Cc3ccccc3)ccc2O1", "relative growth": "inactive: 0.988"}
{"compound": "O=C(C[C@@H]1C[C@H]2c3cc(NC(=O)c4ccc5c(c4)OCO5)ccc3O[C@H]2[C@H](CO)O1)NCc1ccccn1", "relative growth": "inactive: 0.999"}
{"compound": "COc1ccccc1S(=O)(=O)N(C)C[C@H]1OCc2cnnn2CCCC(=O)N([C@H](C)CO)C[C@@H]1C", "relative growth": "inactive: 1"}
{"compound": "CN(CC(=O)O)[C@H]1CCS(=O)(=O)C1", "relative growth": "inactive: 1"}
{"compound": "Nc1c[nH]ccc1=O", "relative growth": "inactive: 0.983"}
{"compound": "C[C@@H]1CCCCO[C@@H](CN(C)Cc2ccccc2)[C@@H](C)CN([C@H](C)CO)C(=O)c2cc(NC(=O)c3ccccc3)ccc2O1", "relative growth": "inactive: 0.972"}
{"compound": "COc1ccc(S(=O)(=O)N(C)C[C@@H]2OCCCC[C@@H](C)Oc3ccc(NC(=O)Nc4ccc(F)cc4)cc3C(=O)N([C@@H](C)CO)C[C@H]2C)cc1", "relative growth": "inactive: 1.02"}
{"compound": "COc1ccc(CN(C)C[C@H]2Oc3ccc(NC(=O)Nc4ccc(C(F)(F)F)cc4)cc3C(=O)N([C@@H](C)CO)C[C@@H]2C)cc1", "relative growth": "inactive: 0.942"}
{"compound": "C[C@@H]1CN([C@H](C)CO)C(=O)c2cccc(NS(=O)(=O)c3cn(C)cn3)c2O[C@@H]1CN(C)S(C)(=O)=O", "relative growth": "inactive: 0.985"}
{"compound": "CN1C(=S)N[C@@H]2CS(=O)(=O)C[C@@H]21", "relative growth": "inactive: 1.04"}
{"compound": "C[C@H](CO)N1C[C@H](C)[C@H](CN(C)C(=O)C2CCCCC2)OCCCC[C@H](C)Oc2ccc(NC(=O)Nc3ccc(C(F)(F)F)cc3)cc2C1=O", "relative growth": "inactive: 1.02"}
{"compound": "CNC(=O)N1CCN(Cc2cnn(C)c2)C[C@]2(CCCC(=O)N2)C1", "relative growth": "inactive: 0.985"}
{"compound": "CCn1ncc(NC(=O)Cn2ccc(C(=O)OC)n2)n1", "relative growth": "inactive: 1.04"}
{"compound": "CNC(=O)C[C@H]1CC[C@H]2[C@@H](COC[C@@H](O)CN2C(=O)c2ccc3c(c2)OCO3)O1", "relative growth": "inactive: 1.02"}
{"compound": "Cc1noc(C)c1S(=O)(=O)Nc1ccc2c(c1)CC(=O)N([C@H](C)CO)C[C@@H](C)[C@H](CN(C)Cc1ccc(C(=O)O)cc1)O2", "relative growth": "inactive: 1.05"}
